Data: paper PMC5007331, “YTHDF2 destabilizes m^6A-containing RNA through direct recruitment of the CCR4–NOT deadenylase complex” (Nature Communications, 2016)
These are yes or no findings as the source states them, for the method shown. For part of these data: In cells and extracts the contact can be indirect. Some entries that bind do so weakly or less than the wild type. Sequences can lack the tags named with a protein.

Protein sequences, listed by entry. Tags and fused reporters are not part of them. Lines headed by an entry give the natural chain unless they say otherwise; changes in a name come on top. Residues count along the entry.
UniProt A5YKK6: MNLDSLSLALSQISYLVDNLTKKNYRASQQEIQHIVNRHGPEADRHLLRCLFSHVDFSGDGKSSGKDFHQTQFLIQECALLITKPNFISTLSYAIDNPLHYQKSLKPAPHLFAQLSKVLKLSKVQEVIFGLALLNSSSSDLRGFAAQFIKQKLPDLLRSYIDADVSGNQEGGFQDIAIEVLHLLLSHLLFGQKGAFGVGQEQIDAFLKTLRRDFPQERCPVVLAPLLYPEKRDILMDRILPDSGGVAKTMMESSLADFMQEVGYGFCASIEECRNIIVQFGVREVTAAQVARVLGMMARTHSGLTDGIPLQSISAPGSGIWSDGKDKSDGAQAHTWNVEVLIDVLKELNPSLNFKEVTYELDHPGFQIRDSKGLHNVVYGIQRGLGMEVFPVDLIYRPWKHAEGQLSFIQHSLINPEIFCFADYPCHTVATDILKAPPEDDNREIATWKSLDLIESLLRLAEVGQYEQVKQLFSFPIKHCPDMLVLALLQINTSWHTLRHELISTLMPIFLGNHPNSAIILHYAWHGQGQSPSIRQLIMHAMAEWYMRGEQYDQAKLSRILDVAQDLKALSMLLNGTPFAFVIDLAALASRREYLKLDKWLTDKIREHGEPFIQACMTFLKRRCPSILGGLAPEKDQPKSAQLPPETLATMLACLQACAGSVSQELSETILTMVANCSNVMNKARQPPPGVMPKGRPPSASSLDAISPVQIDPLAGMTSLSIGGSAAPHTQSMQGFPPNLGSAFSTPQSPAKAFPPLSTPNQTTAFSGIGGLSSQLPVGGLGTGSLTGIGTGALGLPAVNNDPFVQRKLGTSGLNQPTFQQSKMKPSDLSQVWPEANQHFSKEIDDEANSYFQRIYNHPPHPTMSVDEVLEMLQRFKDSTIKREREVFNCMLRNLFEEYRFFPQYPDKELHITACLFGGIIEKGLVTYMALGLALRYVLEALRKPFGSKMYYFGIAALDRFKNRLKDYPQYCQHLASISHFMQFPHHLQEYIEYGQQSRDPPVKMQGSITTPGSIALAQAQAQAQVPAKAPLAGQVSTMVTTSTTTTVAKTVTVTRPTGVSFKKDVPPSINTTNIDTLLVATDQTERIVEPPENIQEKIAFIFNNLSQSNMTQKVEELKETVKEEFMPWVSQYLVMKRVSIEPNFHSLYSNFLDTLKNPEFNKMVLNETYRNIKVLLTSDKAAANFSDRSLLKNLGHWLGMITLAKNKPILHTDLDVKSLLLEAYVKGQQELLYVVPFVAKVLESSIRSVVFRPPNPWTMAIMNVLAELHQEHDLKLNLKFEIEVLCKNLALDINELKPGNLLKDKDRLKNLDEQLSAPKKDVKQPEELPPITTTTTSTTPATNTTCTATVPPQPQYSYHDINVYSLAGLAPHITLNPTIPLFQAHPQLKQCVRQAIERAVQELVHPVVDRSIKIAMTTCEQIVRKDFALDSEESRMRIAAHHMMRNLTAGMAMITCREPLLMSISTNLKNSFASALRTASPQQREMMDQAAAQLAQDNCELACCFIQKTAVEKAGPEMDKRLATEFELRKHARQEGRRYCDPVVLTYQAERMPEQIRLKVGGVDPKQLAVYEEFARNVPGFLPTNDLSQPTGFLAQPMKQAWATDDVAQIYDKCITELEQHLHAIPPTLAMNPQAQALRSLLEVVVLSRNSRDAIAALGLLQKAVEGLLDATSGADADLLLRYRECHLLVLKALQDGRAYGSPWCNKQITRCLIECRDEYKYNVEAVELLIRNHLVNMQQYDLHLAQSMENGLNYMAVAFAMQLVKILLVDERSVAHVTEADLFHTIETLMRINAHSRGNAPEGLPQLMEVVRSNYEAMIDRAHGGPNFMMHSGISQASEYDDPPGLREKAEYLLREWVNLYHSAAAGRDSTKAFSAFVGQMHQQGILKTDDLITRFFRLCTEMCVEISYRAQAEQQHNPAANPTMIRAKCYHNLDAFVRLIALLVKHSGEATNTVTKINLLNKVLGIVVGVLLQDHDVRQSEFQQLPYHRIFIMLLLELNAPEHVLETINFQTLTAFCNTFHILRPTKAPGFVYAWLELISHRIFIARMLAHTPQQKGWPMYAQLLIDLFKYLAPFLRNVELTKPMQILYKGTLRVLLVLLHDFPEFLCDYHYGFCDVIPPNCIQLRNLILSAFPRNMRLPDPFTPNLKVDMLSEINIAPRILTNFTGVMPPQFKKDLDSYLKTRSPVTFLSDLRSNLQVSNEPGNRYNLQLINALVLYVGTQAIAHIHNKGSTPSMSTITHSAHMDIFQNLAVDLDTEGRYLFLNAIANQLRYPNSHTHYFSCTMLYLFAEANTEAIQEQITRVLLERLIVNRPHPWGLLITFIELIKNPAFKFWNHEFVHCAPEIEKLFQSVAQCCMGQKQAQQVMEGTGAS
CNOT1 SH domain-GST fusion protein (aa 1842-2376): residues 1842-2376 of A5YKK6
UniProt Q9UIV1: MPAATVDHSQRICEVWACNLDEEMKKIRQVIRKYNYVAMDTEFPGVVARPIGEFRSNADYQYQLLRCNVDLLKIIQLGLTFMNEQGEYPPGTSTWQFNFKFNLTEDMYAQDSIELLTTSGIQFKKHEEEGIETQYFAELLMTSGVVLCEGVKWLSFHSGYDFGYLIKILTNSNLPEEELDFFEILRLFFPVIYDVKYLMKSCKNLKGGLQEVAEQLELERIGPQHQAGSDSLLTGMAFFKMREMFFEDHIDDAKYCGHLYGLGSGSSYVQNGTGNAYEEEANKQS

T1: λN-FLAG-YTHDF2 (human) (UniProt Q9Y5A9)
T1 sequence: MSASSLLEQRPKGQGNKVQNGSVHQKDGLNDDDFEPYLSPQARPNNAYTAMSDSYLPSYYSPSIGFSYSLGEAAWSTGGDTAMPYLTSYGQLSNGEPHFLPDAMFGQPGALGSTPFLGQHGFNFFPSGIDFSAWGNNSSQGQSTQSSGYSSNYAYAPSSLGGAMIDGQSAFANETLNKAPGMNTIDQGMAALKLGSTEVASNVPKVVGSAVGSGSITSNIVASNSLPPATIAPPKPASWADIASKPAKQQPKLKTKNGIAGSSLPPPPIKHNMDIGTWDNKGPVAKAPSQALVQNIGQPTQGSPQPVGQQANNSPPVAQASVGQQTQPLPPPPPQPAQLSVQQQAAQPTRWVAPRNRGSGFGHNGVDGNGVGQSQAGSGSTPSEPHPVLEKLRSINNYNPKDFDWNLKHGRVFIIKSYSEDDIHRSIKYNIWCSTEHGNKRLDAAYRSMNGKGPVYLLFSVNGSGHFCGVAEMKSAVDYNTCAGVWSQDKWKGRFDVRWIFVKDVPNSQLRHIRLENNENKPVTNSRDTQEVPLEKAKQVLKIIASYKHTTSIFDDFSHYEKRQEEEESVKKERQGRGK

T2: FLAG-tagged YTHDF2 stably expressed in HeLa-tTA cells (human) (UniProt Q9Y5A9)
T2 sequence: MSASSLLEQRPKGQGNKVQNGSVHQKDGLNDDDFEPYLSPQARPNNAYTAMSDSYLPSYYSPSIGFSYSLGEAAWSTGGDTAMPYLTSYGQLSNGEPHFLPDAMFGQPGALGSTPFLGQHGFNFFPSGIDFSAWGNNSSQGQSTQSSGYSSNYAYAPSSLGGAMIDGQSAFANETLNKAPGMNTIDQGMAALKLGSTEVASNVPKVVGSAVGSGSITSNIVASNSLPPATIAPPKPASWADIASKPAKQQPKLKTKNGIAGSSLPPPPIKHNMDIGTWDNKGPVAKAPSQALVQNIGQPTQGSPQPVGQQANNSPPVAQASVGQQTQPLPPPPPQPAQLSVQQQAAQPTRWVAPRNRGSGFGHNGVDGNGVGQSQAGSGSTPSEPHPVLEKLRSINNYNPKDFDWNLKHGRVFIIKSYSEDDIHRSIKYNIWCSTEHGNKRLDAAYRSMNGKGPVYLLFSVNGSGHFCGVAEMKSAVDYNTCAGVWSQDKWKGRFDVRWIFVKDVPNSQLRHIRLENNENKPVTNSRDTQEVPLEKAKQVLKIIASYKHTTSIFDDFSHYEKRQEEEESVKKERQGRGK

T3: λN-FLAG-YTHDF2 (human), Q9Y5A9
T3 chain: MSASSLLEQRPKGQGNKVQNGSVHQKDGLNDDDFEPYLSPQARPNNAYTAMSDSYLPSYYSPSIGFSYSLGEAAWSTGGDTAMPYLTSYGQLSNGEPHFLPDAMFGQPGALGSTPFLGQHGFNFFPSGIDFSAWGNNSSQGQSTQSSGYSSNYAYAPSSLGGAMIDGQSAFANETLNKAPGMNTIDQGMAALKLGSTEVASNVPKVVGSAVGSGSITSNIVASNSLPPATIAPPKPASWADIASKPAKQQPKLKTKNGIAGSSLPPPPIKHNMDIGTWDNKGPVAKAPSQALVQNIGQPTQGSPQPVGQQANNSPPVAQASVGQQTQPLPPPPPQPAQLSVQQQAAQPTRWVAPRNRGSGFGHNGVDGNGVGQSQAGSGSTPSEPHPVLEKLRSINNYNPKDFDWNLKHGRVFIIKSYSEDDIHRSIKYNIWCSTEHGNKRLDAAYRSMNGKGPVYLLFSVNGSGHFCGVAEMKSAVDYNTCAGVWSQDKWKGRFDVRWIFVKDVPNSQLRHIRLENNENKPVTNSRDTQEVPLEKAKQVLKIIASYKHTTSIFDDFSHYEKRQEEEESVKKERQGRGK


How the values were obtained:
λN-FLAG-YTHDF2 (human) = molecular target: T1, λN-FLAG-YTHDF2 (human); assay: co-IP; HEK 293 cells co-transfected; lysate (50 mM Tris-HCl pH 7.4, 150 mM NaCl, 1 mM EDTA, 1 mM DTT, 0.5% NP-40) with RNase A; anti-FLAG affinity gel, 3 h at 4 °C; immunoblot
[1] = molecular target: T2, FLAG-tagged YTHDF2 stably expressed in HeLa-tTA cells (human); assay: co-IP; HeLa-tTA cells stably expressing FLAG-tagged YTHDF2; FLAG-M2 antibody or mouse IgG on Dynabeads Protein G, 3 h at 4 °C; blot for endogenous CNOT1
[2] = molecular target: T3, λN-FLAG-YTHDF2 (human), Q9Y5A9; assay: co-IP; HEK 293 cells co-transfected; lysate (50 mM Tris-HCl pH 7.4, 150 mM NaCl, 1 mM EDTA, 1 mM DTT, 0.5% NP-40) with RNase A; anti-FLAG affinity gel, 3 h at 4 °C; immunoblot; details: remark: other sources report otherwise
[3] = molecular target: CNOT1 SH domain-GST fusion protein (aa 1842-2376) (human) (UniProt A5YKK6); assay: pull-down; GST pull-down: 40 pmol YTHDF2 fragment with 40 pmol GST or GST-CNOT1 (aa 1842-2376) on glutathione Sepharose-4B; 20 mM HEPES pH 7.4, 200 mM NaCl, 0.1% Tween-20; 2 h at 4 °C; SDS-PAGE and Coomassie Blue staining; both purified

Row | binding (λN-FLAG-YTHDF2 (human)) | Molecule | binding [3] | other results
1 | no binding | CAF1-141/147 (M141K and L147K double mutant) (from UniProt Q9UIV1 1-285) (enzyme) | – | –
2 | binds | HA-tagged CNOT1 (from UniProt A5YKK6 1-2376) | – | –
3 | no binding | V5-tagged DCP2 (from UniProt Q8IU60 1-420) (enzyme) | – | –
4 | – | endogenous CNOT1 (from UniProt A5YKK6 1-2376) | – | binding [1]: binds
5 | – | V5-tagged PAN2, Q504Q3 1-1202 (enzyme) MNFEGLDPGLAEYAPAMHSALDPVLDAHLNPSLLQNVELDPEGVALEALPVQESVHIMEGVYSELHSVVAEVGVPVSVSHFDLHEEMLWVGSHGGHATSFFGPALERYSSFQVNGSDDIRQIQSLENGILFLTKNNLKYMARGGLIIFDYLLDENEDMHSLLLTDSSTLLVGGLQNHIIEIDLNTVQETQKYAVETPGVTIMRQTNRFFFCGHTSGKVSLRDLRTFKVEHEFDAFSGSLSDFDVHGNLLAACGFSSRLTGLACDRFLKVYDLRMMRAITPLQVHVDPAFLRFIPTYTSRLAIISQSGQCQFCEPTGLANPADIFHVNPVGPLLMTFDVSASKQALAFGDSEGCVHLWTDSPEPSFNPYSRETEFALPCLVDSLPPLDWSQDLLPLSLIPVPLTTDTLLSDWPAANSAPAPRRAPPVDAEILRTMKKVGFIGYAPNPRTRLRNQIPYRLKESDSEFDSFSQVTESPVGREEEPHLHMVSKKYRKVTIKYSKLGLEDFDFKHYNKTLFAGLEPHIPNAYCNCMIQVLYFLEPVRCLIQNHLCQKEFCLACELGFLFHMLDLSRGDPCQGNNFLRAFRTIPEASALGLILADSDEASGKGNLARLIQRWNRFILTQLHQDMQELEIPQAYRGAGGSSFCSSGDSVIGQLFSCEMENCSLCRCGSETVRASSTLLFTLSYPDGSKSDKTGKNYDFAQVLKRSICLDQNTQAWCDTCEKYQPTIQTRNIRHLPDILVINCEVNSSKEADFWRMQAEVAFKMAVKKHGGEISKNKEFALADWKELGSPEGVLVCPSIEELKNVWLPFSIRMKMTKNKGLDVCNWTDGDEMQWGPARAEEEHGVYVYDLMATVVHILDSRTGGSLVAHIKVGETYHQRKEGVTHQQWYLFNDFLIEPIDKHEAVQFDMNWKVPAILYYVKRNLNSRYNLNIKNPIEASVLLAEASLARKQRKTHTTFIPLMLNEMPQIGDLVGLDAEFVTLNEEEAELRSDGTKSTIKPSQMSVARITCVRGQGPNEGIPFIDDYISTQEQVVDYLTQYSGIKPGDLDAKISSKHLTTLKSTYLKLRFLIDIGVKFVGHGLQKDFRVINLMVPKDQVLDTVYLFHMPRKRMISLRFLAWYFLDLKIQGETHDSIEDARTALQLYRKYLELSKNGTEPESFHKVLKGLYEKGRKMDWKVPEPEGQTSPKNAAVFSSVLAL | – | binding [2]: no binding
6 | – | His-tagged YTHDF2 aa 201-300 (domain or fragment, UniProt Q9Y5A9 201-300) SNVPKVVGSAVGSGSITSNIVASNSLPPATIAPPKPASWADIASKPAKQQPKLKTKNGIAGSSLPPPPIKHNMDIGTWDNKGPVAKAPSQALVQNIGQPT | no binding (tested: 40 pmol of each protein) | –
7 | – | V5-tagged DCP1A, Q9NPI6 1-582 (protein) MEALSRAGQEMSLAALKQHDPYITSIADLTGQVALYTFCPKANQWEKTDIEGTLFVYRRSASPYHGFTIVNRLNMHNLVEPVNKDLEFQLHEPFLLYRNASLSIYSIWFYDKNDCHRIAKLMADVVEEETRRSQQAARDKQSPSQANGCSDHRPIDILEMLSRAKDEYERNQMGDSNISSPGLQPSTQLSNLGSTETLEEMPSGSQDKSAPSGHKHLTVEELFGTSLPKEQPAVVGLDSEEMERLPGDASQKEPNSFLPFPFEQLGGAPQSETLGVPSAAHHSVQPEITTPVLITPASITQSNEKHAPTYTIPLSPVLSPTLPAEAPTAQVPPSLPRNSTMMQAVKTTPRQRSPLLNQPVPELSHASLIANQSPFRAPLNVTNTAGTSLPSVDLLQKLRLTPQHDQIQTQPLGKGAMVASFSPAAGQLATPESFIEPPSKTAAARVAASASLSNMVLAPLQSMQQNQDPEVFVQPKVLSSAIPVAGAPLVTATTTAVSSVLLAPSVFQQTVTRSSDLERKASSPSPLTIGTPESQRKPSIILSKSQLQDTLIHLIKNDSSFLSTLHEVYLQVLTKNKDNHNL | – | binding [2]: no binding
8 | – | His-tagged YTHDF2 aa 1-100 (domain or fragment, UniProt Q9Y5A9 1-100) MSASSLLEQRPKGQGNKVQNGSVHQKDGLNDDDFEPYLSPQARPNNAYTAMSDSYLPSYYSPSIGFSYSLGEAAWSTGGDTAMPYLTSYGQLSNGEPHFL | no binding (tested: 40 pmol of each protein) | –
9 | – | His-tagged YTHDF2 aa 301-400 (domain or fragment, UniProt Q9Y5A9 301-400) QGSPQPVGQQANNSPPVAQASVGQQTQPLPPPPPQPAQLSVQQQAAQPTRWVAPRNRGSGFGHNGVDGNGVGQSQAGSGSTPSEPHPVLEKLRSINNYNP | no binding (tested: 40 pmol of each protein) | –
10 | – | His-tagged YTHDF2-C (YTHDF2-401-579) (domain or fragment, UniProt Q9Y5A9 401-579) KDFDWNLKHGRVFIIKSYSEDDIHRSIKYNIWCSTEHGNKRLDAAYRSMNGKGPVYLLFSVNGSGHFCGVAEMKSAVDYNTCAGVWSQDKWKGRFDVRWIFVKDVPNSQLRHIRLENNENKPVTNSRDTQEVPLEKAKQVLKIIASYKHTTSIFDDFSHYEKRQEEEESVKKERQGRGK | no binding (tested: 40 pmol of each protein) | –
11 | no binding | V5-tagged PARN (enzyme, UniProt O95453 1-639) MEIIRSNFKSNLHKVYQAIEEADFFAIDGEFSGISDGPSVSALTNGFDTPEERYQKLKKHSMDFLLFQFGLCTFKYDYTDSKYITKSFNFYVFPKPFNRSSPDVKFVCQSSSIDFLASQGFDFNKVFRNGIPYLNQEEERQLREQYDEKRSQANGAGALSYVSPNTSKCPVTIPEDQKKFIDQVVEKIEDLLQSEENKNLDLEPCTGFQRKLIYQTLSWKYPKGIHVETLETEKKERYIVISKVDEEERKRREQQKHAKEQEELNDAVGFSRVIHAIANSGKLVIGHNMLLDVMHTVHQFYCPLPADLSEFKEMTTCVFPRLLDTKLMASTQPFKDIINNTSLAELEKRLKETPFNPPKVESAEGFPSYDTASEQLHEAGYDAYITGLCFISMANYLGSFLSPPKIHVSARSKLIEPFFNKLFLMRVMDIPYLNLEGPDLQPKRDHVLHVTFPKEWKTSDLYQLFSAFGNIQISWIDDTSAFVSLSQPEQVKIAVNTSKYAESYRIQTYAEYMGRKQEEKQIKRKWTEDSWKEADSKRLNPQCIPYTLQNHYYRNNSFTAPSTVGKRNLSPSQEEAGLEDGVSGEISDTELEQTDSCAEPLSEGRKKAKKLKRMKKELSPAGSISKNSPATLFEVPDTW | – | –
12 | – | V5-tagged PAN3, Q58A45 1-887 (protein) MNSGGGLPPPSAAASPSSSSLAAAVAVVAPPGVGGVPGGAAVGVKLKYCRYYAKDKTCFYGEECQFLHEDPAAGAAPGLGLHSNSVPLALAGAPVAGFPPGAVAGGGAGPPPGPKKPDLGDPGTGAAAGGGGSSGGLDGPRLAIPGMDGGALTDTSLTDSYFSTSFIGVNGFGSPVETKYPLMQRMTNSSSSPSLLNDSAKPYSAHDPLTSPASSLFNDFGALNISQRRKPRKYRLGMLEERLVPMGSKARKAKNPIGCLADRCKSGVPINMVWWNRVTENNLQTPNPTASEFIPKGGSTSRLSNVSQSNMSAFSQVFSHPSMGSPATAGLAPGMSLSAGSSPLHSPKITPHTSPAPRRRSHTPNPASYMVPSSASTSVNNPVSQTPSSGQVIQKETVGGTTYFYTDTTPAPLTGMVFPNYHIYPPTAPHVAYMQPKANAPSFFMADELRQELINRHLITMAQIDQADMPAVPTEVDSYHSLFPLEPLPPPNRIQKSSNFGYITSCYKAVNSKDDLPYCLRRIHGFRLVNTKCMVLVDMWKKIQHSNIVTLREVFTTKAFAEPSLVFAYDFHAGGETMMSRHFNDPNADAYFTKRKWGQHEGPLPRQHAGLLPESLIWAYIVQLSSALRTIHTAGLACRVMDPTKILITGKTRLRVNCVGVFDVLTFDNSQNNNPLALMAQYQQADLISLGKVVLALACNSLAGIQRENLQKAMELVTINYSSDLKNLILYLLTDQNRMRSVNDIMPMIGARFYTQLDAAQMRNDVIEEDLAKEVQNGRLFRLLAKLGTINERPEFQKDPTWSETGDRYLLKLFRDHLFHQVTEAGAPWIDLSHIISCLNKLDAGVPEKISLISRDEKSVLVVTYSDLKRCFENTFQELIAAANGQL | – | binding [2]: no binding
